Assay results taken from paper PMC6919601, “Identification of Plasmodium dipeptidyl aminopeptidase allosteric inhibitors by high throughput screening” (PLoS ONE, 2019).
Screen size: about 110,000 compounds; about 230 (0.21%) showed an effect of 50% or more. The list shows a part of the results.

What follows are compounds tested against DPAP1 (Plasmodium falciparum, UniProt Q8IIJ9) (assay: primary screen, percent inhibition; read by cleavage of a fluorogenic dipeptide substrate; higher = more effect of the substance).
Design: species or system P. falciparum D10 trophozoite lysates; single well
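Also: 30 min substrate incubation versus DMSO and 10 µM JCP410 controls.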

DPAP1, sequence (Q8IIJ9 whole entry, looked up): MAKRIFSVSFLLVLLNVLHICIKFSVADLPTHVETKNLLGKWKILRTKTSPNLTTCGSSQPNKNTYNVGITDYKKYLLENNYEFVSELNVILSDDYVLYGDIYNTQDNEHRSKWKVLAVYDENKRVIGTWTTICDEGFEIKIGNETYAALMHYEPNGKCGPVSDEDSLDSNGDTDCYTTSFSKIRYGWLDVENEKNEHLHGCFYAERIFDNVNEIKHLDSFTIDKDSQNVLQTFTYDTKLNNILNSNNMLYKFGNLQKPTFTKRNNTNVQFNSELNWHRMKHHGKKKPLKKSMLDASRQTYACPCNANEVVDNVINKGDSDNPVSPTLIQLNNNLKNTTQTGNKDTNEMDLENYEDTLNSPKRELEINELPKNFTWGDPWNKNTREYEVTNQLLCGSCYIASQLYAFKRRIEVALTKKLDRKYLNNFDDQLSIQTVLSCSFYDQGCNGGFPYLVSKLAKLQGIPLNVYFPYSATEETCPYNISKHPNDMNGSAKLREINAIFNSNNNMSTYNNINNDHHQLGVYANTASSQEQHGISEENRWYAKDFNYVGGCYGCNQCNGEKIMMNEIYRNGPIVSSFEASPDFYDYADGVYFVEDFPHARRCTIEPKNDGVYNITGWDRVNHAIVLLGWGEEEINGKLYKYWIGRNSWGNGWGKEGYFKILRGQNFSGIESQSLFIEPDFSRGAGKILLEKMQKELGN

Structure (SMILES) | % Inhibition @ 10 uM [%]
COc1ccc(C(=O)N2CCCc3ccccc32)cc1 | 0.135
O=C(O)c1ccc(N2C(=O)c3ccc(C(=O)O)cc3C2=O)cc1 | -0.216
Cc1ccc(S(=O)(=O)c2nnn3c2nc(NCCC(C)C)c2ccccc23)cc1C | -1.37
Clc1ccc(N2N=C(c3ccccc3)CC2c2ccc(Br)cc2)cc1Cl (centres unmarked) | 0.00784
COc1ccc(-c2cc(C(=O)Nc3cc(C)on3)no2)cc1 | 2.01
CCOc1ccc(C2c3c(oc4ccccc4c3=O)C(=O)N2c2nc(C)c(C(=O)OC)s2)cc1 (centres unmarked) | 70.8
CC(=O)Nc1ccc(NCN2C(=O)C3C4CCC(C4)C3C2=O)cc1 (centres unmarked) | -0.366
COC(=O)c1ccc(COc2ccc(C#N)cc2)o1 | 3.52
CCCN1CCC(NC2CCCCCCC2)CC1 | -3.6
CN(CC(=O)NCc1cccs1)S(=O)(=O)c1cccc2cccnc12 | -6.07
CN(C)c1ccc(-n2nc3ccc4ccccc4c3n2)cc1 | -4.26
O=S(=O)(CCc1nc2ccccc2[nH]1)c1ccc(Cl)cc1 | 2.08
CCO/C(O)=C1/C(C)=NC(=S)NC1c1ccccc1 (centres unmarked) | 4.41
C=CC(C)N1C(=O)S/C(=C\c2cc(OC)c(N3CCCC3)cc2OC)C1=O (centres unmarked) | -8.95
Cc1ccc(-c2csc(/C(C#N)=C/c3ccco3)n2)c(C)c1 | 2.54
COc1cccc(/C=C2/C(=O)ON=C2c2ccccc2)c1OC | -0.386
Cc1oc(-c2ccc(F)cc2)cc1-c1nn2c(-c3ccccc3)nnc2s1 | 4.96
CC(C)c1ccc(C(=O)C2CN3CCC2CC3)cc1 (centres unmarked) | 2.14
CCCn1c(CCC(=O)O)ccc1-c1ccc(OC)cc1 | 7.04
COc1ccc(CN2CCN(Cc3ccco3)CC2)cc1 | -1.79
CCCC1=C(C(=O)OCC)C(c2ccc(Br)cc2)C(C#N)=C(N)O1 (centres unmarked) | -10.8
CC(C)c1ccc(CN2CCN(Cc3ccc4c(c3)OCO4)CC2)cc1 | -0.0404
Clc1ccc(CCNc2cnnc3c(Cl)cccc23)cc1 | -4.21
CC(=O)/C(=C1\NC(C)(C)CC12C=CC(=O)C=C2)c1ccccc1 | -4.49
CCOc1ccc(S(=O)(=O)N2CCN=C2c2ccccc2)cc1 | -5.38

Structure (SMILES) | % Inhibition @ 10 uM [%]
CC1CN(C/C=C/c2ccccc2)CC(C)O1 (centres unmarked) | -0.603
O=C(CSc1n[nH]c(-c2ccccc2)n1)Nc1cccc2ccccc12 | 2.45
COc1ccc(C2C(C#N)=C(N)Oc3[nH]nc(C)c32)cc1 (centres unmarked) | -0.744
Cc1ccccc1C(=O)Nc1ccccc1C(=O)Nc1ccccc1 | -5.4
Cc1cc(Cl)ccc1OC(C)C(=O)Nc1cnn(CCCC(=O)O)c1 (centres unmarked) | 17.2
CCCS(=O)(=O)NCCc1cc2c(C)ccc(C)c2nc1O | -6.14
C=CCNC(=O)c1ccc(Cl)c(Cl)c1 | -4.13
COc1ccc(C(=O)Nc2c(C)ccc3nsnc23)cc1 | -2.34
Cc1ccc(O)c(C(=O)CC(O)(c2ccccc2)C(F)(F)F)c1 (centres unmarked) | -0.582
COCCNC(=O)c1cnn2c1NC(c1cccc(OC)c1)CC2C(F)(F)F (centres unmarked) | 0.0289
CCOc1ccc(NC(=O)C2CCCC2)cc1 | -1.52
Cc1cccc(CNC(=O)c2ccc(-n3cnc4cccnc43)cc2)c1 | -2.4
CCOC(=O)C1=C(CN2CC=C(c3ccccc3)CC2)NC(=O)NC1c1ccc(Cl)cc1 (centres unmarked) | 0.708
CCC1CCCCN1Cc1nc2c(c(=O)n(C)c(=O)n2C)n1CC(C)C (centres unmarked) | -1.43
CCN(CC)CCCNC(=O)Cn1cnc2c1c(=O)n(C)c(=O)n2C | 6.12
CC(C)(C)OC(=O)N1CCC(c2c(C(=O)Nc3ccccn3)cnn2-c2cccc(F)c2)CC1 | -1.43
CC1CN(C)C(C)CC1n1nc(O)cc1N (centres unmarked) | -0.45
CC(C)(C)c1ccc(C2C(C(=O)c3ccc4c(c3)OCCO4)=C(O)C(=O)N2Cc2cccnc2)cc1 (centres unmarked) | 2.79
Cc1cccc(NS(=O)(=O)c2cc(C(=O)Nc3ccccc3C(=O)O)ccc2C)c1 | 31.6
COc1cccc2c1cc1c(=O)n(CC(=O)NCCc3c[nH]c4ccccc34)nc(C)n12 | 0.0198
Cc1ccc(S(=O)(=O)NC2=NCN(Cc3cccnc3)CN2)cc1 | 3.36
CCCC1=NN2C(=N)/C(=C/c3cc(Br)ccc3OC)C(=O)N=C2S1 | 0.685
C=CCOc1ccc(C(=O)C2=C(O)C(=O)N(CCN(C)C)C2c2ccc(C(C)C)cc2)cc1C (centres unmarked) | -1.93
O=C(c1cc2c(Cl)nc3ccccc3c2s1)N1CCC2(CC1)OCCO2 | -3.06
CN(C)c1ccc(/C=C2\SC(=N)N(c3nccs3)C2=O)cc1 | -3.9
